{"source": "the supplement of paper PMC4166925", "note": "± gives the standard deviation of the averaged measurements. Over roughly 33,000 sequences, “E-score (dimensionless, -0.5 to 0.5)” has its median near -0.046; the highest 2% begin near 0.36. Some of the results follow."}
{"system": "T1, SpTbr T-box DNA-binding domain (GST fusion)", "T1 sequence": "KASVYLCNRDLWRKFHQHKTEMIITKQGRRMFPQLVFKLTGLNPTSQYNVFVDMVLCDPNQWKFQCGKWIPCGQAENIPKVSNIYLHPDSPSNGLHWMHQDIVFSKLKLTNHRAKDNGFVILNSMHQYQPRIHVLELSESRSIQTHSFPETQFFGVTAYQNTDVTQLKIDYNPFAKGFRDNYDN", "assay": "PBM E-score of 8-mer (E-score (dimensionless, -0.5 to 0.5)); Tbr is Tbrain of the sea star Patiria miniata (Pm) or the sea urchin Strongylocentrotus purpuratus (Sp); higher = stronger binding preference; most listed sequences are background and not binding sites", "conditions": "the construct has about 5 more residues each side", "procedure,_shortened": "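GST-fused Tbr T-box DNA-binding domains (the whole T-box plus about five flanking residues) were expressed in BL21 E. coli at 20 °C and purified by glutathione affinity chromatography. Universal Agilent oligonucleotide arrays were made double-stranded by primer extension, incubated with 200 nM protein in PBS (pH 7.5), then scanned and quantified. Every ungapped 8-mer was scored from probe intensities. The Universal PBM Analysis Suite gave each word an enrichment E-score, averaged over duplicate arrays.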"}
{"sequence": "GGCGCTTA", "PBM E-score of 8-mer": "0.0135 ± 0.054"}
{"sequence": "CACCATTA", "PBM E-score of 8-mer": "0.0463 ± 0.043"}
{"sequence": "ACTGCTTA", "PBM E-score of 8-mer": "-0.0489 ± 0.026"}
{"sequence": "CATCTCGG", "PBM E-score of 8-mer": "-0.188 ± 0.0026"}
{"sequence": "ATATGACG", "PBM E-score of 8-mer": "0.0665 ± 0.016"}
{"sequence": "ACCACAGA", "PBM E-score of 8-mer": "-0.0948 ± 0.043"}
{"sequence": "AAATCGTC", "PBM E-score of 8-mer": "0.151 ± 0.056"}
{"sequence": "AGAGCCAG", "PBM E-score of 8-mer": "0.0237 ± 0.035"}
{"sequence": "AACCACCA", "PBM E-score of 8-mer": "-0.0862 ± 0.013"}
{"sequence": "AACGCTTC", "PBM E-score of 8-mer": "-0.0132 ± 0.036"}
{"sequence": "CTAAAGAA", "PBM E-score of 8-mer": "-0.102 ± 0.072"}
{"sequence": "ACCGCGGG", "PBM E-score of 8-mer": "-0.0515 ± 0.027"}
{"sequence": "AGCCGCAT", "PBM E-score of 8-mer": "-0.0458 ± 0.035"}
{"sequence": "CTCTAGAC", "PBM E-score of 8-mer": "-0.087 ± 0.0047"}
{"sequence": "ACATACTA", "PBM E-score of 8-mer": "0.029 ± 0.033"}
{"sequence": "ATGAAAAG", "PBM E-score of 8-mer": "0.0103 ± 0.09"}
{"sequence": "GCAATGGA", "PBM E-score of 8-mer": "-0.19 ± 0.053"}
{"sequence": "ACTACCGG", "PBM E-score of 8-mer": "0.0217 ± 0.013"}
{"sequence": "AAACAAGT", "PBM E-score of 8-mer": "-0.0768 ± 0.066"}
{"sequence": "CTGGGGCC", "PBM E-score of 8-mer": "-0.254 ± 0.051"}
{"sequence": "AGCCCCGC", "PBM E-score of 8-mer": "-0.114 ± 0.062"}
{"sequence": "AAGTGGCA", "PBM E-score of 8-mer": "0.338 ± 0.024"}
{"sequence": "GATGCCCC", "PBM E-score of 8-mer": "-0.0507 ± 0.011"}
{"sequence": "CTGCCTCA", "PBM E-score of 8-mer": "0.057 ± 0.037"}
{"sequence": "GATTAGCA", "PBM E-score of 8-mer": "0.0309 ± 0.1"}
{"sequence": "TCGCAACA", "PBM E-score of 8-mer": "0.283 ± 0.0032"}
{"sequence": "ATTGACCA", "PBM E-score of 8-mer": "-0.253 ± 0.027"}
{"sequence": "CGCTAATA", "PBM E-score of 8-mer": "0.135 ± 0.092"}
{"sequence": "GTTAAACA", "PBM E-score of 8-mer": "0.0019 ± 0.0036"}
{"sequence": "GCACCCCC", "PBM E-score of 8-mer": "0.238 ± 0.032"}
{"sequence": "ACCGTGAT", "PBM E-score of 8-mer": "0.189 ± 0.029"}
{"sequence": "ACCGGGTG", "PBM E-score of 8-mer": "0.053 ± 0.046"}
{"sequence": "ACCTGACG", "PBM E-score of 8-mer": "0.218 ± 0.0039"}
{"sequence": "GGGGAACC", "PBM E-score of 8-mer": "-0.174 ± 0.0062"}
{"sequence": "TGGTCACA", "PBM E-score of 8-mer": "0.252 ± 0.013"}
{"sequence": "CTGACCAA", "PBM E-score of 8-mer": "-0.28 ± 0.0064"}
{"sequence": "AGCAACCT", "PBM E-score of 8-mer": "-0.0355 ± 0.0017"}
{"sequence": "AGCAGTAC", "PBM E-score of 8-mer": "-0.16 ± 0.064"}
{"sequence": "ACCACGTC", "PBM E-score of 8-mer": "0.0203 ± 0.032"}
{"sequence": "CTCTCGTA", "PBM E-score of 8-mer": "-0.0231 ± 0.063"}
{"sequence": "ACCACATC", "PBM E-score of 8-mer": "0.0272 ± 0.067"}
{"sequence": "ATGTTGAG", "PBM E-score of 8-mer": "0.00872 ± 0.024"}
{"sequence": "AACTTTGG", "PBM E-score of 8-mer": "-0.0497 ± 0.0029"}
{"sequence": "GCAATTCC", "PBM E-score of 8-mer": "0.0755 ± 0.0036"}
{"sequence": "AACAGGTG", "PBM E-score of 8-mer": "0.364 ± 0.028"}
{"sequence": "CCAAATCG", "PBM E-score of 8-mer": "0.0669 ± 0.0054"}
{"sequence": "GGGGTACA", "PBM E-score of 8-mer": "-0.26 ± 0.084"}
{"sequence": "ACAATACC", "PBM E-score of 8-mer": "-0.039 ± 0.018"}
{"sequence": "CCTCAGAC", "PBM E-score of 8-mer": "-0.204 ± 0.031"}
{"sequence": "ACCTAATC", "PBM E-score of 8-mer": "-0.0279 ± 0.039"}
{"sequence": "AAAGATAT", "PBM E-score of 8-mer": "0.0376 ± 0.074"}
{"sequence": "GAATGCCC", "PBM E-score of 8-mer": "-0.162 ± 0.0098"}
{"sequence": "ATGTGGAG", "PBM E-score of 8-mer": "-0.0268 ± 0.17"}
{"sequence": "CACGCCCG", "PBM E-score of 8-mer": "0.309 ± 0.019"}
{"sequence": "CCAGATTC", "PBM E-score of 8-mer": "-0.108 ± 0.04"}
{"sequence": "TCGCAGCA", "PBM E-score of 8-mer": "0.101 ± 0.025"}
{"sequence": "GAAACATC", "PBM E-score of 8-mer": "-0.27 ± 0.023"}
{"sequence": "ATTGCGCG", "PBM E-score of 8-mer": "0.111 ± 0.021"}
{"sequence": "GGAAGCAA", "PBM E-score of 8-mer": "-0.216 ± 0.074"}
{"sequence": "GACACGGC", "PBM E-score of 8-mer": "0.215 ± 0.041"}
{"sequence": "ATCATTTA", "PBM E-score of 8-mer": "0.00378 ± 0.029"}
{"sequence": "CATAAGGC", "PBM E-score of 8-mer": "-0.145 ± 0.1"}
{"sequence": "AATACAGT", "PBM E-score of 8-mer": "-0.218 ± 0.019"}
{"sequence": "CTCACGTA", "PBM E-score of 8-mer": "0.136 ± 0.045"}
{"sequence": "AAGTTTAA", "PBM E-score of 8-mer": "-0.0417 ± 0.0086"}
{"sequence": "AAAGGGTT", "PBM E-score of 8-mer": "-0.219 ± 0.011"}
{"sequence": "CGAACGTC", "PBM E-score of 8-mer": "-0.0242 ± 0.0021"}
{"sequence": "ACATACAA", "PBM E-score of 8-mer": "0.0194 ± 0.019"}
{"sequence": "GACCTGCA", "PBM E-score of 8-mer": "0.0202 ± 0.079"}
{"sequence": "AAACCCTG", "PBM E-score of 8-mer": "-0.196 ± 0.037"}
{"sequence": "CACTCGGG", "PBM E-score of 8-mer": "0.0627 ± 0.043"}
{"sequence": "CCCCAGCG", "PBM E-score of 8-mer": "-0.148 ± 0.02"}
{"sequence": "TACCCCAA", "PBM E-score of 8-mer": "-0.171 ± 0.028"}
{"sequence": "AGGTGCTG", "PBM E-score of 8-mer": "0.4215 ± 0.0039"}
{"sequence": "AAAATTAG", "PBM E-score of 8-mer": "0.114 ± 0.057"}
{"sequence": "AACGAGAC", "PBM E-score of 8-mer": "-0.0485 ± 0.1"}
{"sequence": "CATACAAA", "PBM E-score of 8-mer": "-0.165 ± 0.019"}
{"sequence": "CATCCGTC", "PBM E-score of 8-mer": "0.134 ± 0.057"}
{"sequence": "AGATTGCC", "PBM E-score of 8-mer": "0.0357 ± 0.058"}
{"sequence": "CGACAATA", "PBM E-score of 8-mer": "0.149 ± 0.027"}
{"sequence": "TCGCATAA", "PBM E-score of 8-mer": "0.0493 ± 0.0031"}
{"sequence": "GTGATACA", "PBM E-score of 8-mer": "0.15 ± 0.021"}
{"sequence": "ATGCCTGA", "PBM E-score of 8-mer": "-0.0882 ± 0.11"}
{"sequence": "ATTAGCCC", "PBM E-score of 8-mer": "-0.179 ± 0.035"}
{"sequence": "CTCCCAAG", "PBM E-score of 8-mer": "-0.152 ± 0.047"}
{"sequence": "GTCCTTCA", "PBM E-score of 8-mer": "-0.144 ± 0.019"}
